# Assay results taken from PubChem BioAssay AID434955 (Southern Research Specialized Biocontainment Screening …, 2010).
# This is one part of the list. Further columns of the screen follow, without active or inactive calls. The list favours compounds with an active or inconclusive main result.
# Test: beta-lactam sensitization of Mtb H37Rv, H37Rv (AID 434955);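 also: growth measured after seven days incubation then overnight dye step; 0% = bacteria only wells and 100% = bacteria with antibiotic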
# Settings: M. tuberculosis H37Rv growth with meropenem, percent inhibition; measured here: primary screen without meropenem; at 25 µM
row,SMILES,inhibition [%]
1,COc1ccc(CNC(=O)c2csnn2)cc1,-4.73
2,C=CCNC(=O)/C(C#N)=C/c1c(N(Cc2ccccc2)Cc2ccccc2)nc2ccccn2c1=O,-5.11
3,Cc1ccc(C)c(CN2CCC(n3nccc3NC(=O)C3CCCC3)CC2)c1,6
4,COc1ccc(-c2csc(Nc3ccc(C)cn3)n2)cc1OC,35
5,O=C(COc1ccc(C(=S)N2CCCC2)cc1)Nc1ccccc1C(F)(F)F,-1.76
6,O=C(C1=C[C@@H](c2ccc(Br)cc2)C[C@@H](OCCCCO)O1)N1CCN(Cc2ccc3c(c2)OCO3)CC1,56.9
7,Cc1cc(-c2nsc(=O)o2)c(S(C)(=O)=O)s1,-11.3
8,O=C(NC(=S)NCc1ccco1)c1cccc(Cl)c1,9.28
9,CCc1ccc(-c2cc(C(F)(F)F)n3nc(C(=O)Nc4c(C)nn(Cc5ccccc5Cl)c4C)cc3n2)s1,2.17
10,CCN(CC)C(=O)Oc1ccc2c(c1)O/C(=C\c1ccco1)C2=O,8.49
11,CN(C)S(=O)(=O)c1ccc(C(=O)NCc2nnc(SCC(=O)N3CCCCCC3)o2)cc1,-3.87
12,CCCOc1ccc(N2CC(C(=O)Nc3ccccc3OC)CC2=O)cc1 (stereo not drawn),9.09
13,CCCc1nc2oc3c(OCC)ncnc3c2c2c1COC(C)(C)C2,12.9
14,Cc1cc(OCc2cc(C(=O)N3CCC(Oc4cccnc4)CC3)no2)cc(C)c1Cl,98.6
15,O=C(CN1CCN(c2ccccn2)CC1)N1c2ccccc2Sc2ccc(C(F)(F)F)cc21,6.43
16,COC(=O)c1ccc(/C=N/Nc2nc(-c3ccc(C)cc3)cs2)cc1,49.9
17,CCNC(=S)NNC(=O)c1ccoc1C,2.51
18,CCCOc1ccc(C2C(C(=O)c3ccc(C)o3)=C(O)C(=O)N2Cc2ccco2)cc1OCC (stereo not drawn),-3.52
19,COc1ccc(N2CCN(C(=O)C3CCN(C(=O)c4ccc([N+](=O)[O-])cc4)CC3)CC2)cc1,-3.56
20,CCCCN(C)CC(O)Cn1cc(/C=C/C(=O)c2ccc(C)cc2)c2ccccc21 (stereo not drawn),99.2
21,COC(=O)COc1ccc(S(=O)(=O)NCCC2=CCCCC2)cc1C,-6.83
22,CCCCCn1c(=O)[nH]c2cc(C(=O)NCCc3ccc(OC)c(OC)c3)ccc2c1=O,3.45
23,COc1ccc(-c2ccc3c(N)c(C(=O)c4ccc(OC)c(OC)c4)sc3n2)cc1,-4.33
24,Cc1ccc2nccc(C(=O)N3CCCC(N4CCN(c5ccc(F)cc5)CC4)C3)c2c1 (stereo not drawn),7.45
25,CCCn1nc2cc(C(=O)NCCCCc3ccccc3)ccc2c1OCC,4.33
26,Cc1cc(S(=O)(=O)N2CCCC(N(C)CCc3ccccn3)C2)c(C)s1 (stereo not drawn),3.55
27,CCn1c(SCC(=O)c2[nH]c(C)c(C(C)=O)c2C)nnc1-c1cccs1,1.85

row,SMILES,inhibition [%]
1,Cc1ccnc(NC(=O)c2cccc3ccccc23)c1,-3.03
2,O=C(OCC(=O)N(Cc1ccccc1)C1CCS(=O)(=O)C1)c1cc2c(s1)CCCC2 (stereo not drawn),-7.73
3,CN(CCOc1ccccc1)C(=O)C1CCC(=O)N(CCCN2CCOCC2)C1 (stereo not drawn),14.5
4,CCN1C(=O)/C(=C\N2CCN(c3ccc(F)cc3)CC2)SC1=S,16
5,COc1ccc(CNC(=O)CCc2nnc3ccc(N4CCC5(CC4)OCCO5)nn23)cc1,-0.52
6,COc1ccc(-c2csc(Nc3ncccc3C)n2)cc1OC,46.5
7,Cc1ccc(C#N)c(SCc2nnc(-c3ccc(Cl)cc3)o2)n1,2.98
8,COc1ccc(NC(=S)NNC(=O)c2ccccc2OC(F)F)cc1,2.8
9,CCOC(=O)N1CCC(NC(=O)C(CC(C)C)NC(=O)C2CCC(C)CC2)CC1 (stereo not drawn),-3.24
10,CCCn1nnc(NC(=S)NC(=O)CC)n1,54.6
11,COc1ccccc1Oc1ccc(S(=O)(=O)N2CCCCC2)cc1NC(=O)CCNC(C)=O,22.5
12,Cc1cc(C)nc(SCC(=O)OCC(=O)N(C)c2c(N)n(Cc3ccccc3)c(=O)[nH]c2=O)n1,0.06
13,COc1ccc(CCNCc2csc3nc4ccccc4n23)cc1OC,32.1
14,CC/C(CC(C)(C)c1ccccc1)=N\O,-8.25
15,CNC(=O)COC(=O)c1ccccc1NC(=O)c1ccco1,50.2
16,O=C(NCCC1=CCCCC1)NC1CCCCC1,7.21
17,CC(C)NC(=S)NN=C1c2ccccc2-c2ccccc21,-0.95
18,CCn1cc(C(=O)N2CCOCC2)c(=O)c2cc(S(=O)(=O)N(C)C3CCCCC3)ccc21,-3.63
19,O=c1cc(-c2cc3ccccc3o2)c2cc(O)ccc2o1,2.31
20,O=C(CSc1ccc2nnc(-c3ccccn3)n2n1)Nc1cccc(F)c1,-13.6
21,COc1cccc(C(=O)NNC(=O)c2ccccc2Br)c1,-1.37
22,O=C(O)c1cc(S(=O)(=O)NCCN2CCNC2=O)ccc1O,2.15
23,Cn1c(SCC(=O)NC2(C#N)CCCCC2)nnc1-c1cccnc1,-1.31
24,Cc1c(O)ccc(C(=O)CN2CCN(c3ccccc3F)CC2)c1O,5.35
25,O=[N+]([O-])c1cccn2cc(-c3ccc(Br)cc3)nc12,11.6
26,N#Cc1ccc(C23CC4(C2)[C@H](CN(Cc2cccnc2)[C@@H]4c2ccccc2)C3c2ccccc2)cc1 (stereo partly drawn),35
